The text below walks through data of the antibiotic and cytotoxicity screens of Wong et al. (2023).

The list shows a part of the results.

The test system of this assay is S. aureus RN4220. In words: growth inhibition call (relative growth <= 0.2). The following applies: 50 µM.
Regarding `COc1ccccc1NC(=O)N(C)C[C@H]1Oc2ncc(Br)cc2C(=O)N([C@H](C)CO)C[C@@H]1C`, the growth inhibition call was “inactive”. In the case of `Cc1noc(C)c1NC(=O)N(C)C[C@@H]1OCCCC[C@H](C)Oc2ccc(NC(=O)C3CCCCC3)cc2C(=O)N([C@H](C)CO)C[C@@H]1C`, the growth inhibition call was “inactive”.

Turning to `O=C(C[C@H]1C=C[C@H](NS(=O)(=O)c2ccc(F)cc2)[C@H](CO)O1)N1CCC(Cc2ccccc2)CC1`, the growth inhibition call was “inactive”. Next, `C[C@@H]1CN([C@@H](C)CO)C(=O)c2cc(C#CC3(O)CCCC3)cnc2O[C@H]1CN(C)S(C)(=O)=O`: “inactive”; `C[C@@H]1CN([C@H](C)CO)S(=O)(=O)c2ccc(C#Cc3cccc(F)c3)cc2O[C@@H]1CN(C)C(=O)CN1CCOCC1`: “inactive”; `C[C@@H]1CN([C@@H](C)CO)C(=O)c2cc(NS(C)(=O)=O)ccc2O[C@@H]1CN(C)S(=O)(=O)c1ccccc1`: “inactive”. As for `C[C@H]1CN([C@@H](C)CO)S(=O)(=O)c2ccc(C#Cc3cccc(F)c3)cc2O[C@H]1CN(C)S(=O)(=O)c1ccccc1F`, the growth inhibition call is “inactive”. For `C[C@@H]1CN([C@H](C)CO)S(=O)(=O)c2ccc(C#CC3CC3)cc2O[C@@H]1CN(C)C(=O)c1cccc(F)c1` the value was “inactive”.
